Experimental data published in patent US20240417453A1 (ANWITA BIOSCIENCES, published 2024).

Columns and labels:
[1] = biological target: T1, human IL-2Rβ (CD122) (human, UniProt P14784 27-239); assay: BLI (OCTET RED96), receptor loaded on biosensor, global fitting
T1 construct: also called hIL-2Rβ
T1 sequence: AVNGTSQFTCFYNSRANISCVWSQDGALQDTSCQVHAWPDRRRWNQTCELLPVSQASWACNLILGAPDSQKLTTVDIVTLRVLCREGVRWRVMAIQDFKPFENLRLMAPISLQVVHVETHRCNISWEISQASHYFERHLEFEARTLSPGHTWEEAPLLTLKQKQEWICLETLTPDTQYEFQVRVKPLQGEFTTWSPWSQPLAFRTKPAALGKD
Method: (§1) OCTET® RED96 was used to characterize the interactions of anti-HSA-hIL-2 fusion proteins with human IL-2Rα (CD25) and IL-2Rβ (CD122). Briefly, hIL-2Rα and hIL-2Rβ were each loaded onto a biosensor. Each biosensor was then dipped into a solution containing an anti-HSA-hIL-2 fusion protein at 10 to 2,000 nM. Primary experimental data was analyzed with global fitting to determine a binding affinity (Kd).

[2] = biological target: T2, human IL-2Rα (CD25) (human, UniProt P01589 22-240, limits assumed); assay: as above
T2 construct: also called hIL-2Rα
T2 sequence: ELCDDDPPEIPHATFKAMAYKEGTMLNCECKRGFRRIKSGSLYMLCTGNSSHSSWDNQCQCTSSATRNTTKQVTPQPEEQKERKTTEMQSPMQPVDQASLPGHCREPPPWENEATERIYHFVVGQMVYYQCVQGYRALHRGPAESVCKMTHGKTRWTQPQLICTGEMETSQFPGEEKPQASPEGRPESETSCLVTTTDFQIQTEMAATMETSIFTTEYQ
Method: as §1

B1: anti-HSA-hIL-2 fusion protein C1 (hIL-2 mutein-anti-HSA (C125S) C1) (other)
chain: [omitted - about 150 residues]GGGGSGGGGSGGGGSGGGGSEVQLVESGGGLVQPGGSLRLSCAASGSTWSINTLAWYRQAPGKQRDLVARISSGGSTYYADSVKGRFTISRDNSKNTLYLQMNSLRAEDTAVYYCYAQSTWYPPSWGQGTLVTVSS
notes: Produced in CHO cells; also called hIL-2 mutein (C125S) fusion
In the case of B1, the Kd [1] is reported as 533 nM and the Kd [2] is reported as 6.5 nM.
